# Data: the supplement of paper PMC10126150
# Sequences with one replicate were seen in a single cluster, so their values are uncertain.
# Tested on: ATP
# Test: switch fluorescence ratio, 500 uM ATP over buffer (Cy3 cluster intensity, sum of 5 cycles each) (fold (ratio)); higher = stronger signal-on switching upon ATP binding; sequences stand for … in TCGTCGGCAGCGTCAGATGTGTATAAGAGACAGTTTTTTTTTTTTTTTTTTTTTTTTT…TC
# Conditions: aptamer strand: ATP DNA aptamer (quencher-CACCTGGGGGAGTATTGCGGAGGAAGG + anchor), 100 nM annealed; ATP concentration: 500 uM; one replicate
# Procedure, shortened: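 Exposure to 500 uM ATP lasted 15 min at 22 °C before imaging, and a selection-buffer image was taken beforehand, for Cy3-labelled switching-strand clusters on a modified Illumina MiSeq flow-cell annealed to 100 nM quencher-labelled ATP aptamer. Five buffer/ATP cycles were run with NaOH stripping and re-annealing between them. The fluorescence ratio per cluster is summed target-cycle over summed buffer-cycle Cy3 intensity, averaged per switch-domain sequence. Clusters outside 100-1000 RFU were excluded.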
row,Sequence,switch fluorescence ratio
1,CATGACAA,0.989
2,CATGACATTG,1.08
3,CATGACGGT,0.981
4,CATGAGAACG,1.02
5,CATGAGCACT,1.13
6,CATGAGCTGA,0.98
7,CATGAGGATG,1.01
8,CATGAGGTGT,1.04
9,CATGAGTGGA,1.04
10,CATGATCACA,1.02
11,CATGATGAAC,0.93
12,CATGCATTTA,1.03
13,CATGCCAGCT,0.966
14,CATGCCATTC,1.02
15,CATGCCCGGT,1.06
16,CATGCGAGGA,1.03
17,CATGCGCCTC,1.89
18,CATGCTCTCA,1.01
19,CATGGAGTCG,0.98
20,CATGGCCCAT,0.972
21,CATGGGGAGC,0.987
22,CATGGGGCTG,0.965
23,CATGGGTCGT,0.933
24,CATGGTAATA,0.975
25,CATGGTACTT,1.01

row,Sequence,switch fluorescence ratio
1,CATGGTATGC,1.02
2,CATGGTCAAT,1.06
3,CATGGTGGTG,1.01
4,CATGTAAACT,1.03
5,CATGTAAATG,1.03
6,CATGTAATTC,1.06
7,CATGTATCCC,1.02
8,CATGTATCTC,0.999
9,CATGTCTTCT,0.977
10,CATGTGACTC,0.991
11,CATGTGCGAC,1.24
12,CATGTGGGA,0.99
13,CATGTGGTT,0.998
14,CATGTGTAGG,1.05
15,CATGTTGAGA,0.977
16,CATGTTTCGG,0.974
17,CATTAACAAT,0.978
18,CATTAATA,0.999
19,CATTACAGCG,0.985
20,CATTACTGCG,1.04
21,CATTAGCAGA,1.09
22,CATTAGGTAT,0.986
23,CATTATACCT,1.28
24,CATTATCACA,1.03
25,CATTATGGTC,1.06

row,Sequence,switch fluorescence ratio
1,CATTATTTTC,1.02
2,CATTCAACGA,1.03
3,CATTCCGGTT,1.02
4,CATTCGCTGT,1.98
5,CATTCGGAAA,1.17
6,CATTCTGGGT,0.99
7,CATTCTGGTA,0.956
8,CATTGAAGTA,0.989
9,CATTGAATGA,1.04
10,CATTGCACCC,1.07
11,CATTGCGTCC,1.04
12,CATTGTAAAC,1.03
13,CATTTAACT,0.994
14,CATTTACAGG,1.09
15,CATTTATGAT,0.995
16,CATTTGAGGA,1.01
17,CATTTGCTA,1.1
18,CATTTGTTGG,1.01
19,CCAAAAAGGA,0.947
20,CCAAAAATCT,1.01
21,CCAAAAGACT,1.53
22,CCAAAAGGGA,1.04
23,CCAAAATGCC,1.12
24,CCAAACGTAT,1.18
25,CCAAAGGTAC,1.83

row,Sequence,switch fluorescence ratio
1,CCAAATAGTT,0.968
2,CCAACAAAAG,0.986
3,CCAACAGTCT,1.08
4,CCAACGAGAA,1.15
5,CCAACGATTG,1.02
6,CCAACTGGCT,1.02
7,CCAACTTACG,1.4
8,CCAAGAGCTG,1.07
9,CCAAGCTGAG,1.15
10,CCAAGGCGGC,1.07
11,CCAAGTACGT,1.33
12,CCAATACAGG,1.22
13,CCAATACGAA,2.18
14,CCAATACGGA,1.39
15,CCAATAGTAA,1.2
16,CCAATCGAGG,1.02
17,CCAATGGCCC,0.989
18,CCAATGGCTC,1.13
19,CCAATTGTTA,0.988
20,CCAATTTTTG,1
21,CCACAAAGAT,1.04
22,CCACAAATTA,1.02
23,CCACAGGGTA,1.33
24,CCACCATGCC,1.11
25,CCACCGAGAT,3.24

row,Sequence,switch fluorescence ratio
1,CCACCGGGGG,1.5
2,CCACCTTAGG,1.03
3,CCACTCGATG,1.02
4,CCACTTAGGA,0.993
5,CCAGAAAGTC,1.04
6,CCAGACGCCA,2.16
7,CCAGACGGCC,1.01
8,CCAGAGTCTT,1.04
9,CCAGCAGACC,3.43
10,CCAGCATCC,1.48
11,CCAGCCAATG,1.23
12,CCAGCCCATA,1.12
13,CCAGGAATGG,1.12
14,CCAGGACGAC,1.18
15,CCAGGACGGC,0.974
16,CCAGGACTTA,1.02
17,CCAGGAGACA,1.04
18,CCAGGATCTG,1
19,CCAGGCAAAG,1.13
20,CCAGGCGGAC,1.5
21,CCAGGCGTTT,1.04
22,CCAGGGCCCA,1.01
23,CCAGGGCGCC,0.98
24,CCAGGGTACG,1.02
25,CCAGGTTCTT,1.31

row,Sequence,switch fluorescence ratio
1,CCAGTAACGT,0.993
2,CCAGTAGCCG,1.23
3,CCAGTAGTGG,1.01
4,CCAGTATCAT,0.992
5,CCAGTCGATA,1.07
6,CCAGTTGTGA,1.02
7,CCATAAAGTT,1.03
8,CCATAACCGA,1.02
9,CCATACCTCA,1.05
10,CCATACTAAT,1.07
11,CCATAGCTTG,1.03
12,CCATAGGCCA,1.04
13,CCATATTATT,0.975
14,CCATCAATGG,1.08
15,CCATCACGGA,1.05
16,CCATCAGGCA,1.01
17,CCATCCATGG,1.01
18,CCATCCCTA,1.09
19,CCATCCGGGA,1.33
20,CCATCCTGTA,1.03
21,CCATCGCAAG,6.65
22,CCATCTGCGG,1.51
23,CCATGCCAAC,1.3
24,CCATGCGAGA,1.16
25,CCATGCGTAT,1.04

row,Sequence,switch fluorescence ratio
1,CCATGGCCGC,1.18
2,CCATGGCCTA,0.992
3,CCATGGGAGG,0.97
4,CCATGGGCAC,1.07
5,CCATGTAAAC,1.17
6,CCATGTACAC,1.1
7,CCATGTATTT,1.07
8,CCATGTCCGA,1.02
9,CCATGTCCGC,1.67
10,CCATGTCTAT,0.999
11,CCATGTGCGT,1.03
12,CCATTACCAC,1.06
13,CCATTATCTT,1.03
14,CCATTATGTT,0.977
15,CCATTCGGTC,0.952
16,CCATTCTTCT,1
17,CCATTGCATC,2.08
18,CCATTGCCCG,0.984
19,CCATTGGCAT,1.11
20,CCATTGTCTG,0.984
21,CCATTTGGTG,2.65
22,CCCAAGAAGT,0.989
23,CCCAAGCAGT,3.94
24,CCCAAGTCA,1.03
25,CCCAATTCGT,1.06

row,Sequence,switch fluorescence ratio
1,CCCACAGGGT,2.07
2,CCCACCGGCT,1.06
3,CCCACGACGT,1.05
4,CCCACGGCCT,1.07
5,CCCACTATTT,1.07
6,CCCAGATATT,1.01
7,CCCAGCTACT,2.46
8,CCCAGGGAAA,1.25
9,CCCAGGGTAT,1.42
10,CCCAGTTGCC,1.22
11,CCCATAGGAA,0.985
12,CCCATAGGCT,1.02
13,CCCATAGTAG,1.03
14,CCCATATGAC,1.06
15,CCCATCAAGG,1.05
16,CCCATGGGC,1.03
17,CCCATTATAT,1.03
18,CCCCAATGCC,1.49
19,CCCCAATT,1.07
20,CCCCAATTGT,1.09
21,CCCCACCCT,1.03
22,CCCCCTCAG,1.17
23,CCCCCTTCTA,0.98
24,CCCCGAACA,1.28
25,CCCCGAGTTC,1.59
